# The whole screen tested about 150,000 compounds, of which about 540 (0.36%) showed an effect of 50% or more. The list shows a part of the results.
# Test system: Plasmodium falciparum
# Assay: Primary screen in NF54 nanoGlo assay, in single point, at 2uM, 72h; a lower Z score goes with more inhibition
# Type: functional, Erythrocyte
# Settings: timepoint 72 hour
Structure (SMILES),% Inhibition [%],Z score
Cc1ccccc1Cn1ncnc1[C@H]1CC12CCNCC2,-27,2.72
CC(C)[C@H](OC(=O)CCn1nc2ccccn2c1=O)c1nccn1C,1,-0.11
CCCc1cc(N2CCO[C@H](c3ccccc3F)C2)n2ncnc2n1,-6,0.63
Cc1ccc(C2=NO[C@@H](CN(Cc3cccc(Cl)c3)C(=O)C3CCC3)C2)cc1,-20,3.73
Cc1noc(C)c1CC(=O)N1CCC(n2c(=O)[nH]c3ccccc3c2=O)CC1,10,-1.24
CCn1cc(-c2cc(O)cc(CC[C@H]3CCCCN3)c2)c(C)n1,3,-0.45
Cc1cc(OCC(=O)NC2CCCCCC2)nnc1C,-15,1.4
Cc1nc([C@H](C)n2ccnc2-c2nc3ccccc3[nH]2)cs1,-4,0.68
O=c1c2c(ncn1Cc1cccc(F)c1OC(F)F)CCOC2,3,-0.49
C=CCOC1C[C@](OCc2cccc(OC)c2)(C(=O)NCCOC)C[C@H]2OC(C)(C)O[C@@H]12 (stereo partly drawn),-9,1.65
CN(CCN1CCCC1=O)C(=O)Nc1ccc(Cl)cc1Cl,-12,1.23
Cc1c(Cl)cccc1N1CC[C@@H](C(=O)NCC2CC2)C1=O,4,-0.8
Cc1cccnc1CC(=O)NCC1(CN2CCN(C)CC2)CC1,-3,0.68
CCc1ccc(NC(=O)Cn2nc3c(Oc4ccc(C(C)C)cc4)nccn3c2=O)cc1,-15,1.49
Cc1cnn(C)c1S(=O)(=O)N1CCN(Cc2nccn2C(F)F)CC1,-14,1.82
CC(C)n1nccc1C(=O)N(C)Cc1ncc[nH]1,-1,0.16
C[C@@H](CN(C)Cc1nccs1)c1ccccc1,-24,2.39
Cc1cc(F)cc2c1N(C(=O)c1ccc(Cn3ccnn3)o1)CCC2,-4,0.4
CCCn1cnc(NC(=O)NCCc2nc(C)c(Cl)s2)n1,-1,0.07
CC(C)c1ccc(-c2cc(C(=O)N3CCCc4ccccc43)c3cc(Br)ccc3n2)cc1,-44,5.12
CCN(CC)Cc1oc(C(C)(C)C)cc1C(=O)O,-18,2.34

Structure (SMILES),% Inhibition [%],Z score
O=C(Cn1cnnn1)N1CCN(Cc2ccc(Oc3ccccc3)o2)CC1,-1,0.18
O=C1CCCc2[nH]c(=O)c(C(=O)N[C@@H](Cc3ccccc3)c3ccccc3)cc21,-4,0.49
Cc1cc(Br)cc(C(=O)N(C)C2CC[S+]([O-])CC2)c1 (stereo not drawn),-1,0.19
CC(=O)NCCNC(=O)c1ccc2c(c1)n(CC1CC1)c(=O)n2C1CCCCC1,6,-1.29
Cc1nsc2ncc(C(=O)N3CCCCC3)c(N3CCC(C(=O)Nc4cc(F)ccc4F)CC3)c12,5,-0.78
Cc1nnc(NC(=O)c2cc(-c3ccc(F)cc3)c[nH]2)s1,-15,2.23
S=C1OCCN1CN1CCN(c2ncccn2)CC1,-9,1.35
Cc1c([C@H]2CCOC(C)(C)C2)nc(N)c(C#N)c1C1CCNCC1,-15,1.34
CC(C)=CCN1CCC(NC(=O)COC[C@H]2CCCO2)CC1,-4,0.51
COCC1(CNCc2cccc(-c3ccco3)c2)CCC1,17,-3.48
COc1cccc([C@@H]2Cn3nnc(-c4nc(-c5ccccc5F)no4)c3CO2)c1,-24,2.25
Cc1ccccc1OC1CCCCC1NC(=O)N(C)Cc1cn(C)nn1 (stereo not drawn),-10,0.96
O=C(NCC1CC1)N[C@H]1CCN(C(=O)COc2ccccc2)C1,-4,0.54
CCn1nccc1CCN1CCOC2CCCCC21 (stereo not drawn),6,-0.66
Cc1nnc(N2CC(C(F)(F)F)C2)nc1C,-32,3.8
CCCS(=O)(=O)NC1CCN(C(=O)C2C3CCCCC32)C1 (stereo not drawn),-6,0.62
CCN(CC)C(=O)Cn1c([C@H]2CC(=O)N(C3CCCC3)C2)nc2ccccc21,-6,0.9
CO[C@H]1COC[C@@H]1NC(=O)C1CN(Cc2ccccc2)CCC1(F)F (stereo partly drawn),-7,1.37
CCC[C@@H](C(=O)O)n1ccc(NC(=O)c2cncc3sccc23)n1,-15,1.35
CNc1cc([C@H]2C[C@@H](NS(=O)(=O)c3cc(F)ccc3F)C2)nc(N)n1,-18,1.6
COc1ccc(C2(CC(=O)N3CCCC(O)C3)CC(=O)N(CCC(C)C)C2=O)cc1 (stereo not drawn),-6,1.04

Structure (SMILES),% Inhibition [%],Z score
O=C(CC(F)(F)F)N1CCN(Cc2cccc3[nH]ccc23)CC1,-9,0.96
Cc1ccc(Cn2c(=O)c(C(=O)NCc3ccc4c(c3)OCO4)nn(-c3ccc(C(C)C)cc3)c2=O)cc1,37,-5.64
CCc1nn(C)c(CC)c1CC(=O)N[C@@H]1c2ccccc2CC[C@@H]1O,0,-0.01
Cc1nn(C2CCCC2)c2c1[C@@H](c1cnc(NC(C)C)nc1)CC(=O)N2,-19,1.83
CNC(=O)C[C@H]1CCN(Cc2sccc2Cl)C1,-14,1.34
CCn1nnc2cc(C(=O)N3CCN(C(c4ccccc4)c4ccccc4)CC3)ccc21,32,-3.63
Cc1cc(-c2nn(-c3ccccc3F)cc2CN(Cc2nccn2C)C(C)C)c(C)s1,-17,3.18
Cn1nnc2c(=O)n(Cc3ccccc3Cl)cnc21,-10,1.62
O=C(Nc1nnc[nH]1)c1cccc(OCc2ccc(F)cc2)c1,-7,0.85
CN(C)C(=O)c1cccc(NCC2(N(C)C)CCCCC2)n1,-5,0.69
O=c1nc(Nc2ccccc2Oc2ccccc2)cn[nH]1,10,-1.84
COc1cc2c(cc1[C@H]1CC(=O)Nc3n[nH]cc31)OCCCO2,-2,0.47
CC(=O)Nc1ccc(CN2C[C@@H](F)[C@@H](OCc3nc4ccccc4o3)C2)cc1,-10,1.3
Cc1nnc(NC(=O)c2cn(Cc3cccc(Cl)c3)nc2C)s1,27,-3.07
CCc1nc(-c2cc(NC(=O)c3ccc(C)c(NC(C)=O)c3)c(C)s2)no1,-10,1.05
CC1(C)C[C@@H]2C[C@@](C)(CN2S(=O)(=O)N2CCCCC2)C1,-13,1.23
O=C(c1cc(-c2ccco2)n[nH]1)N1CCC(Oc2ccccn2)CC1,-4,0.71
c1ccc(-c2ncn(C[C@H]3COCCO3)c2-c2ncc[nH]2)cc1,-13,1.25
O=c1[nH]cccc1S(=O)(=O)N1CCCCCC1,-11,1.3
CCc1nc(C)c(C(=O)N2C[C@@H]3[C@H](C2)[C@H]2CC[C@@H]3O2)o1,-3,0.62
CC(=O)Nc1nc(-c2cccs2)c(CN2CCN(C)CC2)s1,-8,1.12

Structure (SMILES),% Inhibition [%],Z score
COc1ccccc1C(=O)Nc1ccc2nn(-c3ccc(N(C)C)cc3)nc2c1,-42,4.97
CCCc1cnc(C)nc1NC1CCN(CCO)CC1,3,-0.48
C[C@@H](Cn1cncn1)NC(=O)c1n[nH]c(=O)c2ccccc12,-4,0.71
Cc1csc(C(=O)N2C3CCC2CC(S(=O)(=O)c2ccccc2)C3)c1 (stereo not drawn),3,-0.38
COc1cccc(C(=O)N[C@H]2CCN(c3cc(-c4ccc(Cl)cc4)n[nH]3)C2)c1,-9,0.94
O=C(NC1CCC(F)C1)c1ccc(O)nc1 (stereo not drawn),-3,0.33
N#CC1(c2ccccc2)CC(Nc2ccc(OCCO)nc2)C1 (stereo not drawn),12,-1.48
Cn1cc(C(=O)NC2(c3cc(F)ccc3F)CC2)ccc1=O,-9,1.19
O=S1(=O)CCC(CNc2ncnc3[nH]ncc23)CC1,-13,2.12
CC(C)N1C[C@@H]2Oc3cc(C4CCOCC4)ccc3S(=O)(=O)NC[C@H](O)CN(C)[C@@H]2C1,-5,0.75
Cc1cccc([C@@H](C#N)C(=O)c2coc3ccccc23)c1,-7,0.93
Cn1cnc2cc(C(=O)Nc3nc4c(s3)CCCC4)cnc21,-3,0.34
CCOc1ncccc1C(=O)Nc1ccc(OCc2ccccc2)cc1,8,-1.28
Cc1cc(-n2nc(C)nc2-c2cccc3c(=O)c4ccccc4[nH]c23)ccn1,-8,0.75
O=C(NCc1cccc(-c2cnco2)c1)C1(C(F)F)CCCC1,-21,2.82
Clc1c(CN2CCCC2)cccc1OC12CCCN(CC1)C2 (stereo not drawn),-3,0.66
Cc1nccnc1N1C[C@@H](CO)C[C@@H](CN2CCOCC2)C1,-7,1.46
COC(=O)[C@H](CS(=O)(=O)Nc1cc(C)n(C)n1)c1ccccc1,3,-0.46
CCO[C@H]1C[C@@H](O)C12CCN(C(=O)c1ccc3c4c([nH]c3c1)CCCC4)CC2,-15,1.96
COc1cccc(S(=O)(=O)N2CCc3nc(NC(=O)c4ccc(F)cc4Cl)sc3C2)c1,8,-0.71
CC(C)c1cc(C(=O)Nc2ccc(F)c(F)c2F)nn1-c1ccccn1,-5,0.52

# From ChEMBL document CHEMBL4888484, “Replenishing the malaria drug discovery pipeline: Screening and hit evaluation of the MMV Hit Generation Library 1 (HGL1) against asexual blood stage Plasmodium falciparum ,using a nano luciferase reporter read-out” (2022)
